The full ranking holds about 81,000 sequences; the median of “one-hybrid fitness for binding NBS DNA” is about -0.1, and the highest 2% start at about 0.36. This is one part of the list.
B1: Caulobacter ParB omega fusion; a variant is named by its letters at X, in order, B8GW30 (parent)
chain: MESVVVGEPGMSEGRRGLGRGLSALLGEVDAAPAQAPGEQLGGSREAPIEILQRNPDQPRRTFREEDLEDLSNSIREKGVLQPILVRPSPDTAGEYQIVAGERAWRAAQRAGLKTVPIMVRELDDLAVLEIGIIENVQRADLNVLEEALSYKVLMEKFERTQENIAQTIGKSXSHVANXMRLLXLPDEVQSYLVSGELTAXHARAIAAAADPVALAKQIIEGGLSVRETEALARKAPNLSAGKSKGGRPPRVKDTDTQALESDLSSVLGLDVSIDHRGSTGTLTITYATLEQLDDLCNRLTRGI

Variants of: B1
Assay: one-hybrid fitness for binding NBS DNA (the Noc-binding site; scaled: cognate 1, non-cognate 0); higher = stronger binding
Settings: with NBS DNA site
How it was run: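 The reporter was HIS3, with the binding site 19 bp from the promoter, in E. coli USO used for bacterial one-hybrid selection of Caulobacter ParB libraries with four specificity codons randomised. Growth was on M9 lacking histidine, with 0.1 mM IPTG and 5 mM 3-AT, for 48 hours at 37°C. Illumina sequencing covered plasmids before and after selection; three replicate libraries were pooled and variants with under 10 reads dropped. A fitness score is the log change in variant-to-wild-type read ratio, rescaled to the cognate and non-cognate references.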

one-hybrid fitness for binding NBS DNA, 0.241:
QKTH

one-hybrid fitness for binding NBS DNA, 0.215:
RCHY
DRRR

one-hybrid fitness for binding NBS DNA, 0.389:
RRFH

one-hybrid fitness for binding NBS DNA, 0.418:
QRRF

one-hybrid fitness for binding NBS DNA, 0.516:
QRAY

one-hybrid fitness for binding NBS DNA, ≤ 0.2:
MRDS
NIEG
KKDT
SIYP
PTNF
PYMV
SSNM
KPNC
TDSA
RQDS
QDDV
LTNL
RNII
TIHT
MNTT
RMCW
EFDM
NVFG
TLWV
ERGT
QLLP
QAMY
TAKC
RRCP
QMHQ
LLFR
EQHG
KETS
SSFH
HWRH
YDWR
NSHN
ELSC
NKYN
IRAS
IEPW
GDVR
QIYD
TYFS
IPTH
TLPW
DTME
YPYR
CTAG
MLES
SSVT
NMES
DHMS
YPVP
VTLQ
QLVL
FNQT
YSLG
AMCA
PMSC
TFTY
CGGW
YLEP
RAEQ
LTRP
TMET
TSLL
MTLT
LTHP
MCNA
VTPK
RHTN
KFPS
LNFF
YVWT
ANMD
ETLS
CFPS
GSNA
ADHR
GSSR
KDLG
PGCY
PADD
MAVG
KWLR
GTSE
GTSG
DKYW
QPFN
FRHP
MDLG
IHLT
WTAD
ADWE
RAYF
THSK
HIYG
SVCG
QRFF
FPGM
PNHD
KHPY
GTIK
PRID
QNAK
PQWY
EIGS
DYPC
WRLT
SMDC
SRCW
CAPD
FYKR
PGMG
NNNT
GKTC
RSGL
HWHE
NISV
PNVA
LKQL
YIHA
YKAL
GPRG
SQNS
NSDS
RFWR
TRCI
AFFS
KFTC
RGGF
QKWG
RVTV
CHCC
FRFV
YTPV
PMHE
MDYS
KAGE
HKRC
INCR
VAML
ISMT
LLGL
SDVS
APWL
GSFT
PGQC
MGSM
LHLE
CAES
YSPF
MPVT
HVIK
KWPC
PMYC
VHLI
PGST
GHSV
PGKA
IMHV
RVEN
YCPG
CKRG
RLIS
LRKQ
MHMC
YIQS
WVAN
PKIG
PSPD
NCGT
CGAM
RSGH
LYRN
YSQA
DGRN
PTAV
YSSW
GLND
GHQS
HKNC
KYME
IKSC
VRVQ
EPFM
YPVY
YCDA
PITR
KPSN
TSGC
WTHG
PPVY
MYTW
LKAI
IDNT
LKPN
DQLG
GSSL
GMAR
QQDI
SQSD
QFRC
GVPA
CPVW
NAQW
CCAY
SRPW
VNPP
QKLE
AIAH
APEF
QLQH
GCTK
PMML
EACF
PLPV
DYMS
WWEG
THSR
ERPF
SYRC
MHNS
KMMR
DEAM
PPWV
QNRN
HHAT
SGKW
QVTV
LAVP
MKHV
PKLA
KTHT
IQQG
HGSL
HILF
HQNG
SDRY
WPDR
KKGG
NAEG
QPEF
FNSG
WLMG
FAGS
KDTR
SNQR
NNRG
NLVS
TAYY
DGGV
DVMT
APQF
LMWR
WDMG
SKPL
CCNL
YYSS
EKQF
AYPN
QVQI
ATYV
LIYI
TQTK
SIMR
RCIF
NDRI
RLQF
NSDT
TNCK
LSNQ
LSTE
AYSI
ACKL
GRCF
SEAR
VNYT
GCWG
NCYS
YCIG
EPSR
AREW
DGQR
FLTY
IYNC
ASET
NINS
RFTV
RIRF

one-hybrid fitness for binding NBS DNA, 0.433:
QRYY

one-hybrid fitness for binding NBS DNA, 0.378:
KRIR

one-hybrid fitness for binding NBS DNA, 0.61:
QTST

one-hybrid fitness for binding NBS DNA, 0.512:
RCQR

one-hybrid fitness for binding NBS DNA, 0.231:
RKKI

one-hybrid fitness for binding NBS DNA, 0.546:
QHKH

one-hybrid fitness for binding NBS DNA, 0.686:
QRIR

one-hybrid fitness for binding NBS DNA, 0.222:
RTCA
RRWN

one-hybrid fitness for binding NBS DNA, 0.363:
RRHC

one-hybrid fitness for binding NBS DNA, 0.369:
QCDT

one-hybrid fitness for binding NBS DNA, 0.437:
RYSS

one-hybrid fitness for binding NBS DNA, 0.423:
RCKA

one-hybrid fitness for binding NBS DNA, 0.294:
QRHD
